Out of some 150,000 compounds screened, about 540 (0.36%) showed an effect of 50% or more. The list shows a part of the results.
What follows are molecules tested on Plasmodium falciparum (assay: Primary screen in NF54 nanoGlo assay, in single point, at 2uM, 72h; a lower Z score goes with more inhibition). Conditions: timepoint 72 hour.
Format: functional, Erythrocyte

Row | Structure (SMILES) | % Inhibition [%] | Z score
1 | O=S(=O)(C1CCCCC1)N1CCN(c2ccc(C3CC3)nn2)CC1 | -2 | 0.41
2 | O=C(Nc1ccccc1)N1CCC(N2C[C@H](OCC3CC3)C23CCOCC3)CC1 | -3 | 0.65
3 | Cc1cccc(C[C@H](C)Nc2nnc(C(C)C)s2)n1 | -18 | 3.25
4 | CS(=O)(=O)N1C[C@H]2CCN(C(=O)CCc3c[nH]c4ccccc34)C[C@@]2(CO)C1 | 4 | -0.53
5 | O=C(Nc1cnc2ccccc2c1O)NC1CCCC1 | -7 | 1.3
6 | CCCCOc1c(Br)cc(CNC)cc1OCC | 5 | -0.78
7 | CCNc1nc(C)cc(NCCNC(=O)c2snnc2C)n1 | -3 | 0.42
8 | Cn1cc(CC(=O)NC[C@@]2(C)CCCN2Cc2ccccc2)cn1 | -4 | 0.37
9 | Cc1nc(N)nc(C)c1CC(=O)N1CCC[C@H](C(=O)Cc2ccccc2)C1 | 5 | -0.71
10 | CCCn1c(C(=O)N2CCOCC2)cc2sccc21 | 31 | -4.18
11 | C=CCNC(=O)CNC1(c2ccccc2F)CC1 | 12 | -1.58
12 | Cc1n[nH]c(C)c1-c1cc(NCCO)nc(N)n1 | 2 | -0.24
13 | NS(=O)(=O)c1ccc(NC(=O)COC(=O)c2ccc3c(c2)CCCC3)cc1 | -2 | 0.46
14 | COc1cccc(C(C)CC(=O)NCC(C)(O)C(C)C)c1 (stereo not drawn) | -6 | 0.82
15 | CCCC(=O)N1CCC[C@H](CCc2nnc(-c3cnccn3)o2)C1 | -15 | 1.82
16 | CC(C)n1cnnc1C[C@H]1CCN(C(=O)NC2CCCCC2)C1 | -12 | 2.06
17 | N#Cc1ccccc1CO/N=C(\N)c1nonc1N | -3 | 0.34
18 | Cc1cc(Cl)ccc1-c1ccc2nc(-c3ccc(Cl)cc3)c(CN3CCN(C(=O)c4cccc(F)c4)CC3)n2c1 | -24 | 2.12
19 | O=C(NCC1(O)C2C3CC4C5C3CC2C5C41)c1coc(C2CCCCC2)n1 (stereo not drawn) | -16 | 1.38
20 | O=S(=O)(N1CCCCCC1)N1CCN(Cc2cccnc2)CC1 | -2 | 0.24
21 | CC(=O)N[C@@H]1c2ccccc2C2(CCN(C(=O)CCc3ccc(C)cc3)CC2)[C@H]1OCc1ccncc1 | -6 | 0.78
22 | CC(=O)NCc1nc(C2CC2)nn1CC(F)(F)F | 10 | -1.27
23 | CCCCNC(=O)NS(=O)(=O)c1ccc2c(c1)NC(=O)CO2 | -3 | 0.54
24 | CN1CCC(N(C)C(=O)c2cc3oc(-c4ccc(F)cc4)cc3n2Cc2ccccc2)CC1 | -13 | 1.92
25 | Nc1c(F)ccc(Br)c1F | -4 | 0.44
26 | O=C1[C@H]2[C@H](Cc3ccc(O)cc3)N[C@@]3(C(=O)Nc4ccccc43)[C@H]2C(=O)N1CC1CCCO1 (stereo partly drawn) | -12 | 1.61
27 | Cc1ccc(S(=O)(=O)NC[C@@](O)(c2ccccc2)C2CCOCC2)s1 | -9 | 1.74

Row | Structure (SMILES) | % Inhibition [%] | Z score
28 | Cc1n[nH]c(C)c1CNC(=O)[C@@H]1CCCC[C@@H]1C(=O)N1CCCC1 | -12 | 2.12
29 | CC1CS(=O)(=O)CCN1C(=O)N[C@H](C)c1ccccc1Cl (stereo partly drawn) | -4 | 0.49
30 | O=C(c1ccc(Cl)cc1)N1CCC2(CC1)Nc1ccccc1S(=O)(=O)N2 | -3 | 0.49
31 | CC(C)NC(=O)N1CCC(N2CC3(CCCCC3)[C@H]2c2ccccc2)CC1 | 3 | -0.46
32 | Cc1ccc(-c2cn(-c3ccc(C)cc3)c(NC(=O)CN(Cc3ccccc3)C(=O)C3CCCC3)n2)cc1 | 3 | -0.4
33 | COCc1nnc(NC(=O)c2n[nH]c3c2CCC3)s1 | -9 | 1.46
34 | Cn1nc(C(=O)NC[C@H]2Cc3ccccc3CN2)cc1N | -7 | 1.13
35 | O=C(NCC(F)(F)F)C(=O)NCC1(CO)CC1 | -4 | 0.47
36 | CCOC(=O)N1CCC(NC2CCOC2c2ccccc2)CC1 (stereo not drawn) | -1 | 0.18
37 | COc1ccc2c(c1)[C@@H](NC(=O)c1cn[nH]c1)CCO2 | 0 | -0.04
38 | CCOc1ccc(S(=O)(=O)N2CCCC[C@H]2CC)cc1 | 12 | -1.04
39 | CCOCCn1nc(C)cc1C(=O)N1CCC[C@](C)(c2ccccc2)C1 | 12 | -1.65
40 | COc1ccccc1NC(=O)[C@@H]1COCC(=O)N1Cc1cccs1 | -11 | 2.07
41 | Cc1n[nH]c(C)c1CNC1CCC(F)C1 (stereo not drawn) | -4 | 0.54
42 | CCN1CCN(S(=O)(=O)N2CCc3ccccc3C2)CC1 | 3 | -0.53
43 | N#Cc1cccc(N2CCC3(CC2)CNC(=O)C3)n1 | 0 | -0.03
44 | Cn1cccc1CCC(=O)NCCc1noc(C2CC2)n1 | -5 | 0.69
45 | O=C(C[C@H](c1ccccc1F)c1cn(Cc2ccc(F)cc2)c2ccccc12)N1CCOCC1 | -5 | 1.01
46 | COCCN1CCN(C(=O)c2cc3c(C)nn(-c4ccccc4)c3s2)C[C@@H]1C | -18 | 2.53
47 | CC1CN(C2CC2)CC1NC(=O)N1Cc2cccc(C#N)c2C1 (stereo not drawn) | 6 | -1.12
48 | Cc1cc(C)n(CC2(CNC(=O)C3(N4CCCCC4)CCCCC3)CC2)n1 | 8 | -1.2
49 | Cc1cc(C)cc(-c2nnc(NC(=O)N3CCC[C@@H]3CO)s2)c1 | 30 | -4.33
50 | C/C(=C\c1ccccc1)CN(C)[C@@H](C)c1cccnc1 | -7 | 1.25
51 | O=S(=O)(Nc1cccc(Cl)c1)c1cccn2cnnc12 | 34 | -3.86
52 | CCc1nc(CC(=O)N2CCc3sccc3[C@@H]2C)cs1 | -21 | 2.42
53 | COc1ccc2c(C)c(C(=O)N3CCN(C(C)=O)CC3)oc2c1 | 10 | -1.42
54 | Cc1cc(C(=O)NC2(CN3CCN(c4ccc(F)cc4)CC3)CC2)ccn1 | -14 | 2.3
